The values that follow come from the supplement of paper PMC8728848.

What all share (experiment): glycan array binding signal (z-score within array); higher = stronger binding
Settings in all cases: glycan notation: IUPAC condensed, linker removed

Assay [1] deals with Gal(b1-4)GlcNAc(b1-3)Gal(b1-4)GlcNAc(b1-3)Gal(b1-4)GlcNAc(b1-2)Man(a1-3)[Gal(b1-4)GlcNAc(b1-3)Gal(b1-4)GlcNAc(b1-3)Gal(b1-4)GlcNAc(b1-2)Man(a1-6)]Man(b1-4)GlcNAc(b1-4)GlcNAc. In a few lines: (§1)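 The binding signal is a Z-score computed within each array and averaged over linkers. Arrays of the same protein sequence at different concentrations or buffers were also averaged together. Data originate from 3228 arrays in the Consortium for Functional Glycomics database, kept only where the protein sequence was available.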

Assay [2] concerns the target Gal(b1-4)GlcNAc(b1-3)Gal(b1-4)GlcNAc(b1-3)Gal(b1-4)GlcNAc(b1-2)Man(a1-3)[Gal(b1-4)GlcNAc(b1-3)Gal(b1-4)GlcNAc(b1-3)Gal(b1-4)GlcNAc(b1-2)Man(a1-6)]Man(b1-4)GlcNAc(b1-4)[Fuc(a1-6)]GlcNAc. In a few lines: as §1
The target of assay [3] is Gal(b1-4)GlcNAc(b1-3)Gal(b1-4)GlcNAc(b1-3)Gal(b1-4)GlcNAc(b1-2)[Gal(b1-4)GlcNAc(b1-3)Gal(b1-4)GlcNAc(b1-3)Gal(b1-4)GlcNAc(b1-6)]Man(a1-6)[Gal(b1-4)GlcNAc(b1-3)Gal(b1-4)GlcNAc(b1-3)Gal(b1-4)GlcNAc(b1-2)Man(a1-3)]Man(b1-4)GlcNAc(b1-4)[Fuc(a1-6)]GlcNAc. In a few lines:
as §1

Assay [4] deals with Gal(b1-4)GlcNAc(b1-3)Gal(b1-4)GlcNAc(b1-3)Gal(b1-4)GlcNAc(b1-3)Gal(b1-4)GlcNAc(b1-2)Man(a1-3)[Gal(b1-4)GlcNAc(b1-3)Gal(b1-4)GlcNAc(b1-3)Gal(b1-4)GlcNAc(b1-3)Gal(b1-4)GlcNAc(b1-2)Man(a1-6)]Man(b1-4)GlcNAc(b1-4)GlcNAc. In a few lines:
as §1

The target of assay [5] is Gal(b1-4)GlcNAc(b1-3)Gal(b1-4)GlcNAc(b1-3)Gal(b1-4)GlcNAc(b1-3)Gal(b1-4)GlcNAc(b1-2)Man(a1-3)[Gal(b1-4)GlcNAc(b1-3)Gal(b1-4)GlcNAc(b1-3)Gal(b1-4)GlcNAc(b1-3)Gal(b1-4)GlcNAc(b1-2)Man(a1-6)]Man(b1-4)GlcNAc(b1-4)[Fuc(a1-6)]GlcNAc. In a few lines:
as §1

The target of assay [6] is Gal(b1-4)GlcNAc(b1-3)Gal(b1-4)GlcNAc(b1-3)Gal(b1-4)GlcNAc(b1-3)Gal(b1-4)GlcNAc(b1-2)[Gal(b1-4)GlcNAc(b1-3)Gal(b1-4)GlcNAc(b1-3)Gal(b1-4)GlcNAc(b1-3)Gal(b1-4)GlcNAc(b1-6)]Man(a1-6)[Gal(b1-4)GlcNAc(b1-3)Gal(b1-4)GlcNAc(b1-3)Gal(b1-4)GlcNAc(b1-3)Gal(b1-4)GlcNAc(b1-2)Man(a1-3)]Man(b1-4)GlcNAc(b1-4)[Fuc(a1-6)]GlcNAc. In a few lines: as §1
Assay [7] has as its target Gal(b1-4)GlcNAc(b1-3)Gal(b1-4)GlcNAc(b1-3)Gal(b1-4)GlcNAc(b1-3)Gal(b1-4)GlcNAc(b1-3)Gal(b1-4)GlcNAc(b1-2)Man(a1-3)[Gal(b1-4)GlcNAc(b1-3)Gal(b1-4)GlcNAc(b1-3)Gal(b1-4)GlcNAc(b1-3)Gal(b1-4)GlcNAc(b1-3)Gal(b1-4)GlcNAc(b1-2)Man(a1-6)]Man(b1-4)GlcNAc(b1-4)GlcNAc. Put shortly: as §1
In assay [8] the target is Gal(b1-4)GlcNAc(b1-3)Gal(b1-4)GlcNAc(b1-3)Gal(b1-4)GlcNAc(b1-3)Gal(b1-4)GlcNAc(b1-3)Gal(b1-4)GlcNAc(b1-2)Man(a1-3)[Gal(b1-4)GlcNAc(b1-3)Gal(b1-4)GlcNAc(b1-3)Gal(b1-4)GlcNAc(b1-3)Gal(b1-4)GlcNAc(b1-3)Gal(b1-4)GlcNAc(b1-2)Man(a1-6)]Man(b1-4)GlcNAc(b1-4)[Fuc(a1-6)]GlcNAc. In a few lines: as §1
Assay [9] concerns the target Gal(b1-4)GlcNAc(b1-3)Gal(b1-4)GlcNAc(b1-3)Gal(b1-4)GlcNAc(b1-3)Gal(b1-4)GlcNAc(b1-3)Gal(b1-4)GlcNAc(b1-2)[Gal(b1-4)GlcNAc(b1-3)Gal(b1-4)GlcNAc(b1-3)Gal(b1-4)GlcNAc(b1-3)Gal(b1-4)GlcNAc(b1-3)Gal(b1-4)GlcNAc(b1-6)]Man(a1-6)[Gal(b1-4)GlcNAc(b1-3)Gal(b1-4)GlcNAc(b1-3)Gal(b1-4)GlcNAc(b1-3)Gal(b1-4)GlcNAc(b1-3)Gal(b1-4)GlcNAc(b1-2)Man(a1-3)]Man(b1-4)GlcNAc(b1-4)[Fuc(a1-6)]GlcNAc. Put shortly:
as §1

The target of assay [10] is Gal(b1-4)GlcNAc(b1-3)Gal(b1-4)GlcNAc(b1-3)Gal(b1-4)GlcNAc(b1-3)Gal(b1-4)GlcNAc(b1-3)Gal(b1-4)GlcNAc(b1-3)Gal(b1-4)GlcNAc(b1-2)Man(a1-3)[Gal(b1-4)GlcNAc(b1-3)Gal(b1-4)GlcNAc(b1-3)Gal(b1-4)GlcNAc(b1-3)Gal(b1-4)GlcNAc(b1-3)Gal(b1-4)GlcNAc(b1-3)Gal(b1-4)GlcNAc(b1-2)Man(a1-6)]Man(b1-4)GlcNAc(b1-4)GlcNAc. Put shortly:
as §1

Assay [11] addresses Gal(b1-4)GlcNAc(b1-3)Gal(b1-4)GlcNAc(b1-3)GalNAc. Put shortly: as §1
The target in assay [12] is Gal(b1-4)GlcNAc(b1-3)Gal(b1-4)GlcNAc(b1-3)[Gal(b1-4)GlcNAc(b1-3)Gal(b1-4)GlcNAc(b1-6)]GalNAc. In a few lines: as §1
In assay [13] the target is Gal(b1-4)GlcNAc(b1-3)Gal(b1-4)GlcNAc(b1-6)[Gal(b1-3)]GalNAc. Put shortly:
as §1

For assay [14], the target named is Gal(b1-4)GlcNAc(b1-3)Gal(b1-4)[Fuc(a1-3)]GlcNAc(b1-3)Gal(b1-4)[Fuc(a1-3)]GlcNAc. Put shortly: as §1
The target in assay [15] is Gal(b1-4)GlcNAc(b1-3)GalNAc. In a few lines: as §1
Assay [16] deals with Gal(b1-4)GlcNAc(b1-3)[Fuc(a1-3)GlcNAc(b1-6)]Gal(b1-4)Glc. In a few lines:
as §1

Assay [17] has as its target Gal(b1-4)GlcNAc(b1-3)[Gal(b1-4)GlcNAc(b1-6)]Gal(b1-4)GlcNAc. Put shortly: as §1
For assay [18], the target named is Gal(b1-4)GlcNAc(b1-3)[GlcNAc(b1-6)]Gal(b1-4)GlcNAc. Put shortly:
as §1

In assay [19] the target is Gal(b1-4)GlcNAc(b1-6)Gal(b1-4)GlcNAc. In a few lines: as §1

The list shows a part of the results.

B1: B160 (Bifidobacterium sp) (protein)
chain: MVSHNKRIVAALAAVAAMGIGLAGCGGSDTAGDTKSGSDGGVVNITYMHRLPDSEGMTLVNDIVAKWNKEHPNIQVKATKFDGNAADMIKKLETDVKAGNAPDLAQVGYAEVPEVFTKGLLQDVTDEAAKYKDDFASGPFALMQVDGKTYGLPQDTGPLTYFYNAAEFEKLGITVPKTADELIETAKKTAAQGKYIMTFTPDEAMMMMSGQAGASGPWYKVDGNSWVVNTQTKGSKAVADVYQQLIDNKAALTNPRWDASFDNSIQSGQLIGTVAAAWEAPLFIDSAGGTGAGEWKVTQLGDWFGNGTKTGANGGSGVAVLKGSKHPAEAMEFLDWFNTQVDDLVSQGLVVAATTADAKTPQKWSDYFSGQDVMAEFKTANDNMGDFTYMPGFSAVGAAMKQTAAKAADGSAKVSDVFDTAQKTSVDTLKNLGLSVKE
In the case of B1, the “glycan array binding signal (z-score)” value in assay [1] was -0.068; in assay [2], -0.069; in [3], -0.017; in assay [4], 0.04; in [5], -0.032; in [6], 0.086. The “glycan array binding signal (z-score)” value in [7] was 0.049; in assay [8], 0.002; in assay [9] it was 0.38; in assay [10] it was -0.067; in assay [11], -0.143; in assay [12], -0.14. The “glycan array binding signal (z-score)” value in assay [13] was -0.148; in [14], -0.054; in assay [15], -0.164; in assay [16], -0.156; in [17], -0.152; in [18] it was -0.187. Further, the “glycan array binding signal (z-score)” value in [19] was -0.188.
